The list shows a part of the results.
How the values were obtained:
Assay in all cases: glycan array binding signal (z-score within array); higher = stronger binding
Conditions in all cases: glycan notation: IUPAC condensed, linker removed
[1] = target: GlcNAc(a1-4)Gal(b1-3)GlcNAc
In short: (§1)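 The binding signal is a Z-score computed within each array and averaged over linkers. Arrays of the same protein sequence at different concentrations or buffers were also averaged together. Data originate from 3228 arrays in the Consortium for Functional Glycomics database, kept only where the protein sequence was available.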

[2] = target: GlcNAc(a1-4)Gal(b1-4)GalNAc
In short: as §1

[3] = target: GlcNAc(a1-4)Gal(b1-4)GlcNAc
In short: as §1

[4] = target: GlcNAc(a1-4)Gal(b1-4)GlcNAc(b1-3)Gal(b1-4)Glc
In short: as §1

[5] = target: GlcNAc(a1-4)Gal(b1-4)GlcNAc(b1-3)Gal(b1-4)GlcNAc
In short: as §1

[6] = target: GlcNAc(a1-4)Gal(b1-4)GlcNAc(b1-3)Gal(b1-4)GlcNAc(b1-3)Gal(b1-4)GlcNAc
In short: as §1

[7] = target: GlcNAc(a1-4)Gal(b1-4)GlcNAc(b1-3)Gal(b1-4)[Fuc(a1-3)]GlcNAc(b1-3)Gal(b1-4)[Fuc(a1-3)]GlcNAc
In short: as §1

[8] = target: GlcNAc(a1-6)Gal(b1-4)GlcNAc
In short: as §1

[9] = target: GlcNAc(b1-2)Gal(b1-3)GalNAc
In short: as §1

[10] = target: GlcNAc(b1-2)Man(a1-3)[GlcNAc(b1-2)Man(a1-6)]Man(b1-4)GlcNAc(b1-4)GlcNAc
In short: as §1

[11] = target: GlcNAc(b1-2)Man(a1-3)[GlcNAc(b1-2)Man(a1-6)]Man(b1-4)GlcNAc(b1-4)[Fuc(a1-6)]GlcNAc
In short: as §1

[12] = target: GlcNAc(b1-2)Man(a1-3)[GlcNAc(b1-4)][GlcNAc(b1-2)Man(a1-6)]Man(b1-4)GlcNAc(b1-4)GlcNAc
In short: as §1

[13] = target: GlcNAc(b1-2)Man(a1-3)[GlcNAc(b1-4)][GlcNAc(b1-2)Man(a1-6)]Man(b1-4)GlcNAc(b1-4)[Fuc(a1-6)]GlcNAc
In short: as §1

[14] = target: GlcNAc(b1-2)[GlcNAc(b1-4)]Man(a1-3)[GlcNAc(b1-2)Man(a1-6)]Man(b1-4)GlcNAc(b1-4)GlcNAc
In short: as §1

[15] = target: GlcNAc(b1-2)[GlcNAc(b1-4)]Man(a1-3)[GlcNAc(b1-4)][GlcNAc(b1-2)Man(a1-6)]Man(b1-4)GlcNAc(b1-4)GlcNAc
In short: as §1

[16] = target: GlcNAc(b1-2)[GlcNAc(b1-4)]Man(a1-3)[GlcNAc(b1-4)][GlcNAc(b1-2)[GlcNAc(b1-6)]Man(a1-6)]Man(b1-4)GlcNAc(b1-4)GlcNAc
In short: as §1

[17] = target: GlcNAc(b1-2)[GlcNAc(b1-4)]Man(a1-3)[GlcNAc(b1-4)][GlcNAc(b1-2)[GlcNAc(b1-6)]Man(a1-6)]Man(b1-4)GlcNAc(b1-4)[Fuc(a1-6)]GlcNAc
In short: as §1

[18] = target: GlcNAc(b1-2)[GlcNAc(b1-6)]Man(a1-6)[GlcNAc(b1-2)Man(a1-3)]Man(b1-4)GlcNAc(b1-4)GlcNAc
In short: as §1

[19] = target: GlcNAc(b1-2)[GlcNAc(b1-6)]Man(a1-6)[GlcNAc(b1-2)Man(a1-3)]Man(b1-4)GlcNAc(b1-4)[Fuc(a1-6)]GlcNAc
In short: as §1

[20] = target: GlcNAc(b1-2)[GlcNAc(b1-6)]Man(a1-6)[GlcNAc(b1-4)][GlcNAc(b1-2)Man(a1-3)]Man(b1-4)GlcNAc(b1-4)GlcNAc
In short: as §1

GlcNAc(b1-3)Fuc = target: GlcNAc(b1-3)Fuc
In short: as §1

GlcNAc(b1-3)Gal = target: GlcNAc(b1-3)Gal
In short: as §1

[21] = target: GlcNAc(b1-3)Gal(b1-3)GalNAc
In short: as §1

GlcNAc(b1-3)Gal(b1-4)Glc = target: GlcNAc(b1-3)Gal(b1-4)Glc
In short: as §1

[22] = target: GlcNAc(b1-3)Gal(b1-4)GlcNAc
In short: as §1

[23] = target: GlcNAc(b1-3)Gal(b1-4)GlcNAc(b1-2)Man(a1-3)[GlcNAc(b1-3)Gal(b1-4)GlcNAc(b1-2)Man(a1-6)]Man(b1-4)GlcNAc(b1-4)GlcNAc
In short: as §1

[24] = target: GlcNAc(b1-3)Gal(b1-4)GlcNAc(b1-2)Man(a1-3)[GlcNAc(b1-3)Gal(b1-4)GlcNAc(b1-2)Man(a1-6)]Man(b1-4)GlcNAc(b1-4)[Fuc(a1-6)]GlcNAc
In short: as §1

[25] = target: GlcNAc(b1-3)Gal(b1-4)GlcNAc(b1-2)[GlcNAc(b1-3)Gal(b1-4)GlcNAc(b1-6)]Man(a1-6)[GlcNAc(b1-3)Gal(b1-4)GlcNAc(b1-2)Man(a1-3)]Man(b1-4)GlcNAc(b1-4)GlcNAc
In short: as §1

[26] = target: GlcNAc(b1-3)Gal(b1-4)GlcNAc(b1-3)Gal(b1-4)GlcNAc
In short: as §1

[27] = target: GlcNAc(b1-3)Gal(b1-4)GlcNAc(b1-3)Gal(b1-4)GlcNAc(b1-2)Man(a1-3)[GlcNAc(b1-3)Gal(b1-4)GlcNAc(b1-3)Gal(b1-4)GlcNAc(b1-2)Man(a1-6)]Man(b1-4)GlcNAc(b1-4)GlcNAc
In short: as §1

[28] = target: GlcNAc(b1-3)Gal(b1-4)GlcNAc(b1-3)Gal(b1-4)GlcNAc(b1-2)Man(a1-3)[GlcNAc(b1-3)Gal(b1-4)GlcNAc(b1-3)Gal(b1-4)GlcNAc(b1-2)Man(a1-6)]Man(b1-4)GlcNAc(b1-4)[Fuc(a1-6)]GlcNAc
In short: as §1

[29] = target: GlcNAc(b1-3)Gal(b1-4)GlcNAc(b1-3)Gal(b1-4)GlcNAc(b1-2)[GlcNAc(b1-3)Gal(b1-4)GlcNAc(b1-3)Gal(b1-4)GlcNAc(b1-6)]Man(a1-6)[GlcNAc(b1-3)Gal(b1-4)GlcNAc(b1-3)Gal(b1-4)GlcNAc(b1-2)Man(a1-3)]Man(b1-4)GlcNAc(b1-4)[Fuc(a1-6)]GlcNAc
In short: as §1

[30] = target: GlcNAc(b1-3)Gal(b1-4)GlcNAc(b1-3)Gal(b1-4)GlcNAc(b1-3)Gal(b1-4)GlcNAc(b1-2)Man(a1-3)[GlcNAc(b1-3)Gal(b1-4)GlcNAc(b1-3)Gal(b1-4)GlcNAc(b1-3)Gal(b1-4)GlcNAc(b1-2)Man(a1-6)]Man(b1-4)GlcNAc(b1-4)GlcNAc
In short: as §1

[31] = target: GlcNAc(b1-3)Gal(b1-4)GlcNAc(b1-3)Gal(b1-4)GlcNAc(b1-3)Gal(b1-4)GlcNAc(b1-2)Man(a1-3)[GlcNAc(b1-3)Gal(b1-4)GlcNAc(b1-3)Gal(b1-4)GlcNAc(b1-3)Gal(b1-4)GlcNAc(b1-2)Man(a1-6)]Man(b1-4)GlcNAc(b1-4)[Fuc(a1-6)]GlcNAc
In short: as §1

[32] = target: GlcNAc(b1-3)Gal(b1-4)GlcNAc(b1-3)Gal(b1-4)GlcNAc(b1-3)Gal(b1-4)GlcNAc(b1-2)[GlcNAc(b1-3)Gal(b1-4)GlcNAc(b1-3)Gal(b1-4)GlcNAc(b1-3)Gal(b1-4)GlcNAc(b1-6)]Man(a1-6)[GlcNAc(b1-3)Gal(b1-4)GlcNAc(b1-3)Gal(b1-4)GlcNAc(b1-3)Gal(b1-4)GlcNAc(b1-2)Man(a1-3)]Man(b1-4)GlcNAc(b1-4)[Fuc(a1-6)]GlcNAc
In short: as §1

[33] = target: GlcNAc(b1-3)Gal(b1-4)GlcNAc(b1-3)Gal(b1-4)GlcNAc(b1-3)Gal(b1-4)GlcNAc(b1-3)Gal(b1-4)GlcNAc(b1-2)Man(a1-3)[GlcNAc(b1-3)Gal(b1-4)GlcNAc(b1-3)Gal(b1-4)GlcNAc(b1-3)Gal(b1-4)GlcNAc(b1-3)Gal(b1-4)GlcNAc(b1-2)Man(a1-6)]Man(b1-4)GlcNAc(b1-4)GlcNAc
In short: as §1

[34] = target: GlcNAc(b1-3)Gal(b1-4)GlcNAc(b1-3)Gal(b1-4)GlcNAc(b1-3)Gal(b1-4)GlcNAc(b1-3)Gal(b1-4)GlcNAc(b1-2)Man(a1-3)[GlcNAc(b1-3)Gal(b1-4)GlcNAc(b1-3)Gal(b1-4)GlcNAc(b1-3)Gal(b1-4)GlcNAc(b1-3)Gal(b1-4)GlcNAc(b1-2)Man(a1-6)]Man(b1-4)GlcNAc(b1-4)[Fuc(a1-6)]GlcNAc
In short: as §1

[35] = target: GlcNAc(b1-3)Gal(b1-4)GlcNAc(b1-3)Gal(b1-4)GlcNAc(b1-3)Gal(b1-4)GlcNAc(b1-3)Gal(b1-4)GlcNAc(b1-2)[GlcNAc(b1-3)Gal(b1-4)GlcNAc(b1-3)Gal(b1-4)GlcNAc(b1-3)Gal(b1-4)GlcNAc(b1-3)Gal(b1-4)GlcNAc(b1-6)]Man(a1-6)[GlcNAc(b1-3)Gal(b1-4)GlcNAc(b1-3)Gal(b1-4)GlcNAc(b1-3)Gal(b1-4)GlcNAc(b1-3)Gal(b1-4)GlcNAc(b1-2)Man(a1-3)]Man(b1-4)GlcNAc(b1-4)[Fuc(a1-6)]GlcNAc
In short: as §1

B1: SP16663B-bot-321-25-321 (Bacteroides ovatus) (protein)
chain: DDDDEVTMNSKFYLSTKVFPVDSYEASLSVILKDNSVVVNELQPNYRFVACATERLSKDVKITADSDDNLVSAYNKANDTEYNILPAENYSFTNKTVTIENGESVSGDSIKIELLNVGSLTTEGGYLLPVTISSIEGNNLDALSSNRGVVYLKIQNIHVNVESGQPAEGTLIADRSGWTVKVAPTTRGDAKNLIDGTNSDVARDGGAEYWLTVDIGKVQTLTGIRNKCYASSYSPTAVEVFTSSDGAKWKSIGAVTISKSGTQYIKFSKAVETRYLKYYVKQGPNTVSLTEFDLYAK
- glycan array binding signal (z-score) [1]: -0.06
- glycan array binding signal (z-score) [2]: -0.026
- glycan array binding signal (z-score) [3]: 0.484
- glycan array binding signal (z-score) [4]: 0.036
- glycan array binding signal (z-score) [5]: -0.401
- glycan array binding signal (z-score) [6]: -0.247
- glycan array binding signal (z-score) [7]: 0.324
- glycan array binding signal (z-score) [8]: 0.121
- glycan array binding signal (z-score) [9]: -0.084
- glycan array binding signal (z-score) [10]: -0.548
- glycan array binding signal (z-score) [11]: 0.16
- glycan array binding signal (z-score) [12]: -0.155
- glycan array binding signal (z-score) [13]: -0.277
- glycan array binding signal (z-score) [14]: 0.055
- glycan array binding signal (z-score) [15]: -0.175
- glycan array binding signal (z-score) [16]: -0.483
- glycan array binding signal (z-score) [17]: 0.093
- glycan array binding signal (z-score) [18]: -0.273
- glycan array binding signal (z-score) [19]: -0.433
- glycan array binding signal (z-score) [20]: -0.138
- glycan array binding signal (z-score) (GlcNAc(b1-3)Fuc): -0.336
- glycan array binding signal (z-score) (GlcNAc(b1-3)Gal): -0.642
- glycan array binding signal (z-score) [21]: 0.266
- glycan array binding signal (z-score) (GlcNAc(b1-3)Gal(b1-4)Glc): 0.252
- glycan array binding signal (z-score) [22]: -0.199
- glycan array binding signal (z-score) [23]: 0.431
- glycan array binding signal (z-score) [24]: -0.057
- glycan array binding signal (z-score) [25]: 0.821
- glycan array binding signal (z-score) [26]: -0.268
- glycan array binding signal (z-score) [27]: 0.697
- glycan array binding signal (z-score) [28]: 0.178
- glycan array binding signal (z-score) [29]: 2.65
- glycan array binding signal (z-score) [30]: -0.233
- glycan array binding signal (z-score) [31]: -0.181
- glycan array binding signal (z-score) [32]: 1.28
- glycan array binding signal (z-score) [33]: 0.101
- glycan array binding signal (z-score) [34]: 0.019
- glycan array binding signal (z-score) [35]: -0.29

From the supplement of paper PMC8728848
